# According to patent US20190375786A1, “STABLE PEPTIDES AND METHODS OF USE THEREOF” (Fred Hutchinson Cancer Research Center, priority 2016, published 2019):
# Not every detail of the peptide structures is certain; ends, links or a residue may be inferred. Positions of bridges follow the written chain, without caps; N, C: chain ends. Residues, ends and D or L forms follow the SMILES beside them.
# Tests used:
# [1] = Resistance to elevated temperature, HPLC; format: physicochemical; details: HPLC peak vs untreated peptide; for Resistance to Temperature (75° C.): 75° C. for one hour; for Resistance to Temperature (100° C.): 100° C. for one hour
# Description: (§1) Peptides were first suspended in 500 μl of ddH2O to a stock concentration of 2 mg/ml. Reactions were prepared by adding 12.5 μg of peptide from the stock solution to a 10 mM solution of DTT in PBS and allowed to incubate at room temperature for 30 minutes. Other reactions were prepared with 12.5 μg peptide and 500 U/ml trypsin in 25 mM Tris/75 mM NaCl buffer (pH 7.0) and incubated for 30 minutes at 37.5° C. These reactions were then quenched with 5 μg of soybean trypsin inhibitor (I) and, in some cases, 10 mM dithiothreitol (DTT). Reversed phase HPLC (RP-HPLC) was run on samples using an Agilent 1260 HPLC equipped with a C-18 Poroshell 120B column. Sample were analyzed by a gradient method with a mobile phase of Solvent A (water with 0.1% TFA) and Solvent B (acetonitrile with 0.1% TFA). Solvent B was ramped up from 5%-45% of the mobile phase over a period of 10 minutes. For testing pepsin digestion resistance, reactions were prepared with 12.5 μg peptide with or without 500 U/ml pepsin in simulated gastric fluid (SGF; pH 1.05; […] sodium chloride in 0.7% (v/v) hydrochloric acid) and were incubated for 30 minutes at 37.5° C. For testing temperature resistance, peptides were incubated at 70° C., 75° C., or 100° C. for one hour in 0.5 mM PBS, pelleted, and then the supernatant was analyzed by HPLC.
# This example illustrates peptide stability at high temperatures. Peptides were first suspended in 500 μl of ddH2O to a stock concentration of 2 mg/ml. Reactions were prepared by adding 6.25 μl of peptide from the stock solution with 95 μl ddH2O and incubated at room temperature, 70° C., or 100° C. for one hour in a Thermocycler. RP-HPLC was then run on samples using an Agilent 1260 HPLC equipped with a C-18 Poroshell 120B column. Sample were analyzed by a gradient method with a mobile phase of Solvent A (water with 0.1% TFA) and Solvent B (acetonitrile with 0.1% TFA). Solvent B was ramped up from 5%-45% of the mobile phase over a period of 10 minutes.
# [2] = Resistance to reduction by DTT, RP-HPLC; format: physicochemical; details: 10 mM DTT in PBS, room temperature, 30 minutes; HPLC peak vs untreated peptide
# Description: Peptides were first suspended in 500 ul of ddH2O to a stock concentration of 2 mg/ml. Reactions were prepared by adding 12.5 ug of peptide from the stock solution to a 10 mM solution of DTT in PBS and allowed to incubate at room temperature for 30 minutes. Other reactions were prepared with 12.5 μg peptide with or without 500 U/ml pepsin in simulated gastric fluid (SGF; pH 1.05; […] sodium chloride in 0.7% (v/v) hydrochloric acid) and were incubated for 30 minutes at 37.5° C. Some reactions were quenched with a final concentration of 100 mM Tris base and 10 mM dithiothreitol (DTT). Some reactions were performed in all of the above components, including simulated gastric fluid, pepsin, Tris, and DTT (referred to as SPTD). Reversed phase HPLC (RP-HPLC) was run on samples using an Agilent 1260 HPLC equipped with a C-18 Poroshell 120B column. Sample were analyzed by a gradient method with a mobile phase of Solvent A (water with 0.1% TFA) and Solvent B (acetonitrile with 0.1% TFA). Solvent B was ramped up from 5%-45% of the mobile phase over a period of 10 minutes. Peptides were detected at an absorbance of 214 nm and 280 nm.
# as §1
# This example illustrates peptide stability in biological conditions including in the presence of reducing agents, proteases, oxidative conditions, acidic conditions, and simulated gastric fluids. […] Various peptides were suspended in 500 μl of ddH2O at a stock concentration of 2 mg/ml. This was then diluted in accord with the reaction conditions to prevent adverse buffering effects. Reactions were prepared with 12.5 μg peptide dissolved in solution and, in some samples, additionally suspended in a 10 mM solution of DTT, simulated gastric fluid (pH 1.05; […] sodium chloride in 0.7% (v/v) hydrochloric acid), 500 U pepsin (5000 U/ml pepsin), 50 U trypsin (500 U/ml trypsin) with 1 mg/ml inhibitor in PBS, or a combination of any of these conditions. All protease reactions were incubated for 30 min at room temperature and then quenched. Pepsin reactions were quenched by adding Tris base to a final concentration of 0.075 M. Trypsin reactions were quenched by adding excess soybean trypsin inhibitor. RP-HPLC was then run on samples using an Agilent 1260 HPLC equipped with a C-18 Poroshell 120B column. Sample were analyzed by a gradient method with a mobile phase of Solvent A (water with 0.1% TFA) and Solvent B (acetonitrile with 0.1% TFA). Solvent B was ramped up from 5%-45% of the mobile phase over a period of 10 minutes.
# FIG. 18 illustrates high performance liquid chromatograph (HPLC) traces of peptides in non-reducing (NR) conditions (solid trace) or in 10 mM DTT reducing (R) conditions (dashed trace). […]
SMILES,Resistance to Temperature (75° C.) [1],Resistance to Temperature (100° C.) [1],Resistance to DTT Reduction (10 mM) [2],Resistance to Temperature (70° C.) ([1]; 70° C. for one hour)
"CC[C@H](C)[C@@H]1NC(=O)[C@H](CCC(=O)O)NC(=O)[C@H](CCCNC(=N)N)NC(=O)[C@H](CCCNC(=N)N)NC(=O)[C@@H]2CSSC[C@@H](C(=O)N[C@@H](Cc3ccc(O)cc3)C(=O)N[C@@H](CCCNC(=N)N)C(=O)N[C@@H](CC(N)=O)C(=O)O)NC(=O)[C@H](C(C)C)NC(=O)[C@@H]3CSSC[C@H](NC(=O)[C@H](CO)NC(=O)CNC(=O)CNC(=O)[C@H](CCC(N)=O)NC(=O)[C@@H](NC(=O)[C@H](CCCCN)NC(=O)[C@@H](NC(=O)[C@H](CC(N)=O)NC(=O)[C@@H](NC(=O)[C@H](CCC(N)=O)NC(=O)[C@@H](NC(=O)[C@H](CCC(N)=O)NC(=O)[C@H](CO)NC(=O)CN)C(C)C)[C@@H](C)O)C(C)C)CSSC[C@H](NC(=O)[C@H](CCCCN)NC(=O)CNC(=O)[C@H](C)NC(=O)[C@H](C)NC(=O)[C@H](C(C)C)NC(=O)CNC1=O)C(=O)N[C@@H]([C@@H](C)CC)C(=O)N[C@@H](CC(N)=O)C(=O)NCC(=O)N[C@@H](CCCCN)C(=O)N3)C(=O)N[C@@H](C)C(=O)N[C@@H](CO)C(=O)N[C@@H](C(C)C)C(=O)N2 [compound 30] (H-GSQVQTNVKCQGGSCASVCRREIGVAAGKCINGKCVCYRN-OH; disulfide 10-30, 15-35, 19-37)",High (A peptide classified as high indicates that the majority (at least 75%) of the HPLC peak of the treated peptide is still present as compared to the HPLC peak of the untreated peptide),Low (A peptide classified as low indicates that the majority (over 75%) of the HPLC peak of the treated peptide disappeared as compared to the HPLC peak of the untreated peptide),Low (A peptide classified as low indicates that the majority (over 75%) of the HPLC peak of the treated peptide disappeared as compared to the HPLC peak of the untreated peptide),
"CC[C@H](C)[C@@H]1NC(=O)[C@@H](NC(=O)[C@H](CC(=O)O)NC(=O)[C@H](CCCCN)NC(=O)[C@H](CCC(=O)O)NC(=O)[C@H](CO)NC(=O)[C@H](CO)NC(=O)CN)CSSC[C@@H]2NC(=O)[C@@H]3CSSC[C@@H](C(=O)N[C@@H](CCCNC(=N)N)C(=O)O)NC(=O)[C@H](CCCNC(=N)N)NC(=O)[C@H](CCCCN)NC(=O)[C@H](CCC(=O)O)NC(=O)[C@@H]4CCCN4C(=O)[C@H](CC(N)=O)NC(=O)[C@H]([C@@H](C)O)NC(=O)CNC(=O)[C@H](CCCNC(=N)N)NC(=O)[C@H](CCCNC(=N)N)NC(=O)[C@H](CO)NC(=O)[C@H](CSSC[C@H](NC(=O)[C@H](CCCNC(=N)N)NC(=O)[C@H](CCC(N)=O)NC(=O)[C@H](CC(C)C)NC(=O)[C@H](Cc4c[nH]cn4)NC(=O)[C@H](CCCCN)NC1=O)C(=O)N[C@@H](CCCNC(=N)N)C(=O)N[C@@H](CCC(=O)O)C(=O)N[C@@H](CC(N)=O)C(=O)N[C@@H](CCCCN)C(=O)N[C@@H](CC(=O)O)C(=O)N3)NC(=O)[C@H](CCCCN)NC(=O)[C@H](CCCCN)NC(=O)[C@H](CO)NC2=O [compound 29] (H-GSSEKDCIKHLQRCRENKDCCSKKCSRRGTNPEKRCR-OH; disulfide 7-21, 14-25, 20-36)",High (A peptide classified as high indicates that the majority (at least 75%) of the HPLC peak of the treated peptide is still present as compared to the HPLC peak of the untreated peptide),Low (A peptide classified as low indicates that the majority (over 75%) of the HPLC peak of the treated peptide disappeared as compared to the HPLC peak of the untreated peptide),Low (A peptide classified as low indicates that the majority (over 75%) of the HPLC peak of the treated peptide disappeared as compared to the HPLC peak of the untreated peptide),
"CC[C@H](C)[C@@H]1NC(=O)[C@@H]2CSSC[C@H](NC(=O)[C@H](CCCCN)NC(=O)[C@@H](NC(=O)[C@H](CC(N)=O)NC(=O)[C@@H](NC(=O)[C@H](CC(=O)O)NC(=O)[C@@H](NC(=O)[C@H](CCC(N)=O)NC(=O)[C@H](CO)NC(=O)CN)[C@@H](C)CC)[C@@H](C)O)C(C)C)C(=O)N[C@@H](CO)C(=O)NCC(=O)N[C@@H](CO)C(=O)N[C@@H](CO)C(=O)N[C@@H](CCCCN)C(=O)N[C@H]3CSSC[C@H](NC(=O)[C@H](CCCNC(=N)N)NC(=O)CNC(=O)[C@H](CC(N)=O)NC1=O)C(=O)N[C@@H]([C@@H](C)O)C(=O)N[C@H](C(=O)N[C@@H](Cc1ccc(O)cc1)C(=O)N1CCC[C@H]1C(=O)O)CSSC[C@H](NC(=O)[C@H]([C@@H](C)CC)NC(=O)[C@H](CCCCN)NC(=O)[C@H](C(C)C)NC3=O)C(=O)N[C@@H]([C@@H](C)CC)C(=O)N[C@@H](CC(=O)O)C(=O)N[C@@H](CCCNC(=N)N)C(=O)N[C@@H](Cc1ccc(O)cc1)C(=O)N[C@@H](CC(N)=O)C(=O)N[C@@H]([C@@H](C)O)C(=O)N[C@@H](CCCNC(=N)N)C(=O)NCC(=O)N[C@@H](C)C(=O)N[C@@H](CCCCN)C(=O)N2 [compound 35] (H-GSQIDTNVKCSGSSKCVKICIDRYNTRGAKCINGRCTCYP-OH; disulfide 10-31, 16-36, 20-38)",High (A peptide classified as high indicates that the majority (at least 75%) of the HPLC peak of the treated peptide is still present as compared to the HPLC peak of the untreated peptide),High (A peptide classified as high indicates that the majority (at least 75%) of the HPLC peak of the treated peptide is still present as compared to the HPLC peak of the untreated peptide),Low (A peptide classified as low indicates that the majority (over 75%) of the HPLC peak of the treated peptide disappeared as compared to the HPLC peak of the untreated peptide),High (A peptide classified as high indicates that the majority (at least 75%) of the HPLC peak of the treated peptide is still present as compared to the HPLC peak of the untreated peptide)
